# PubChem BioAssay AID686979 (National Center for Advancing Translational Sciences (NCATS), 2013)
# “And” between values parts separate entries of the source, which are not always exact repeats. Equal entries are not always repeated. Hit rate of the full screen: of about 420,000 compounds, about 50,000 (12%) were called active. This list was built around the results that the source calls inconclusive (neither active nor inactive); the mix of calls is not that of the screen. The call rests on the fitted dose curve; in most records, active means well fitted inhibition curve with a large enough effect; inconclusive means small, poorly fitted or top-dose-only effect; inactive means flat fitted curve, though single readings scatter. Where the call is inconclusive, the potency comes from a doubtful curve fit.
# Assay: qHTS for Inhibitors of human tyrosyl-DNA phosphodiesterase 1 (TDP1): qHTS in cells in presence of CPT; further: nearly all actives have a fitted effect of over 55% in size
# Details: chicken DT40 Tdp1-/-;hTDP1 cells + 20 nM CPT, ATP luminescence, 48 h; activity change, negative = growth inhibition: at 46.2 µM (top of the series)
# How it was run: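 Cell growth measured by CellTiter-Glo luminescence after a minimum 48 h, 37 C compound exposure with 20 nM CPT in Tdp1-knockout DT40 cells stably expressing hTDP1, seeded 400/well; qHTS titration format.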
# On the % scale 0 is the no-effect control and ±100 the full control effect; potency means the concentration at half of the fitted maximal effect; tags describe the fitted curve by direction and shape.
Structure (SMILES),"activity change, negative = growth inhibition",Potency
CCn1c(SCC(=O)NCC2CCCO2)nnc1-c1ccc(Cl)cc1 (stereo not drawn),inactive: 6.01%,–
CCCCCCSc1ccc([C@H]2N[C@@](C)(C(=O)OC)[C@H]3C(=O)N(C)C(=O)[C@@H]23)cc1,–,active: 20.6 µM
COCCCN(CC(=O)Nc1ccc(N2CCOCC2)cc1)S(=O)(=O)c1ccc(Cl)cc1,–,"inconclusive: 29.1 µM [inhibitor, single point]"
Cc1ccc(S(=O)(=O)CCC(=O)c2cccc([N+](=O)[O-])c2)cc1,–,active: 2.06 µM
CN(CC(=O)Nc1ccccc1Br)CC(=O)Nc1ccccc1-c1ccccc1,–,"inconclusive: 16.4 µM [inhibitor, single point]"
COc1ccc(CN(CCNC(=O)CCCCC(=O)NCCN(Cc2ccc(OC)cc2)C(C)C)C(C)C)cc1,–,"inconclusive: 16.4 µM [inhibitor, single point]"
CCOc1cc2c3c(c1)C1(C(=O)N3C(C)(C)C=C2C)C(C#N)=C(N)Oc2cc(O)ccc21 (stereo not drawn),–,"inconclusive: 29.1 µM [inhibitor, single point]"
COc1ccccc1CC(Cc1nc2ccccc2[nH]1)c1nc2ccccc2[nH]1 (stereo not drawn),–,"inconclusive: 33.5 µM [inhibitor, single point] and inconclusive: 29.1 µM [inhibitor, single point]"
Cc1onc(C(=O)N2CCN(C(c3ccccc3)c3ccccc3)CC2)c1[N+](=O)[O-],–,"inconclusive: 29.1 µM [inhibitor, partial curve, poor fit]"
COCC1CCCN(C(=O)c2cc(COc3cncc(Cl)c3)on2)C1 (stereo not drawn),–,"inconclusive: 23.1 µM [inhibitor, single point]"
Cc1ccc(S(=O)(=O)N2CCC(C(=O)NCCc3ccc(S(N)(=O)=O)cc3)CC2)cc1,inactive: 1.38%,–
O=C(CN1CCN(c2cccc(Cl)c2)CC1)c1ccc(O)cc1O,–,"inconclusive: 29.1 µM [inhibitor, single point]"
S=C(NCc1ccccc1)Nc1ccc2ccccc2c1,inactive: 9.72%,–
Cc1cccn2c(=O)c(C(=O)NCCc3ccccc3)c(O)nc12,–,active: 16.4 µM
Cc1ccc(CNc2ccc(N3C(=O)CCCC3=O)cc2[N+](=O)[O-])cc1,–,"inconclusive: 29.1 µM [inhibitor, single point]"
COc1ccc(CCNC(=O)C(=O)NCC(c2ccc3c(c2)OCO3)N2CCOCC2)cc1OC (stereo not drawn),inactive: -7.77%,–
CC(=O)Nc1cccc(NC(=O)c2cccc(-c3ccc(O)cc3)c2)c1,–,"inconclusive: 29.1 µM [inhibitor, single point]"
S=C(CSc1ccccc1)Nc1cccc2ccccc12,–,"inconclusive: 18.4 µM [inhibitor, single point]"
COc1ccc(-c2nsc(SCC(=O)Nc3ccc4c(c3)OCO4)n2)cc1,–,"inconclusive: 32.6 µM [inhibitor, single point]"
CC(C)C[C@H](NC(=O)C1CC(=O)N(c2ccc3c(c2)OCO3)C1)C(=O)NC1CCCCC1 (stereo partly drawn),inactive: -2.14%,–
CC1CCN(C(=O)CSc2nc3cccnc3n2C)CC1,inactive: -19.9%,–
Oc1cc2c(cc1O)[C@H](c1ccccc1)CNCC2,–,active: 26.6 µM

Structure (SMILES),"activity change, negative = growth inhibition",Potency
O=C(NCc1cccs1)c1ccc2sc(C3=C[C@@H](O)[C@@H](O)[C@@H](CO)O3)nc2c1,inactive: -20.1%,–
COc1ccc(S(=O)(=O)N2CCOCC2)cc1NC(=O)c1cccc2c(=O)c(C)c(-c3ccccc3)oc12,–,"inconclusive: 5.17 µM [inhibitor, full curve]"
O=C(NCC(c1cccs1)N1CCOCC1)c1ccc(Cl)cc1 (stereo not drawn),–,"inconclusive: 29.1 µM [inhibitor, single point]"
CCCSc1ccc([C@@H]2[C@H]3C(=O)N(CC)C(=O)[C@H]3[C@]3(C(=O)OC)CCCN23)cc1OC,–,"inconclusive: 20.6 µM [inhibitor, single point]"
O=C(O)C1SCCN1S(=O)(=O)c1ccc(N=NN2CCOCC2)cc1 (stereo not drawn),inactive: 3.01%,–
N#CCOc1nc(N2CCCC2)nc(N2CCCC2)n1,–,"inconclusive: 29.1 µM [inhibitor, single point]"
Cc1ccc(S(=O)(=O)N(C)C)cc1NC(=O)COC(=O)c1ccc2ccccc2n1,inactive: -1.13%,–
CCOc1ccc(NC(=O)c2oc3ccccc3c2NC(=O)c2c(F)cccc2F)cc1,–,"inconclusive: 29.1 µM [inhibitor, single point]"
Cc1cc(=O)c2ccccc2[nH]1,inactive: -21.2%,–
Cc1ccnc(N2C(=O)c3ccccc3C2Nc2ccc3c(c2)OCCO3)c1 (stereo not drawn),–,"inconclusive: 20.6 µM [inhibitor, single point]"
O=[N+]([O-])c1cccc(/C=N/Nc2nc(N3CCOCC3)nc(N3CCOCC3)n2)c1,inactive: -5.13%,–
CC(=O)c1cccc(-c2cnc3c(NC=O)cc(-c4ccc(C(=O)N5CCOCC5)cc4)cn23)c1,–,"inconclusive: 29.1 µM [inhibitor, single point]"
COc1ccc(S(=O)(=O)c2ccc(OC)cc2)cc1,inconclusive: -35.2% [inhibitor],–
CCOC(=O)Cc1csc(NC(=O)Nc2cccs2)n1,–,"inconclusive: 20.6 µM [inhibitor, single point]"
COCc1cccc(-c2csc(C(C)(NC(C)=O)c3ccc(OC)cc3)n2)c1 (stereo not drawn),–,active: 18.4 µM
COc1ccccc1N1CCN(C(=O)CSc2nc3ccccc3nc2Cc2ccccc2)CC1,–,active: 23.1 µM
COCCNc1nc(-n2nc(C)cc2C)nc2sc3c(c12)CCCC3,–,active: 3.66 µM
C[C@@H](c1ccccc1)N1C[C@@H](COCc2ccccc2)Oc2cc(N3CCC[C@H]3C(N)=O)ccc2S1(=O)=O,–,"inconclusive: 29.1 µM [inhibitor, single point]"
CN(CC(=O)Nc1ccc(N2CCOCC2)cc1)CC(=O)Nc1ccc(Cl)cc1[N+](=O)[O-],–,"inconclusive: 20.6 µM [inhibitor, partial curve]"
Cc1ccc(NC(=O)C(=O)c2cc(C)n(-c3ccc(F)cc3)c2C)cc1C,–,"inconclusive: 20.6 µM [inhibitor, single point]"
Cc1ccc(C2(c3noc(CN(C)CC4CCCCO4)n3)CCCC2)cc1 (stereo not drawn),–,"inconclusive: 25.9 µM [inhibitor, single point]"
